Whole data set: some 5,400 compounds, median “IFI” near 2, cut for the highest 2% near 22. Some of the results follow.

The test in a line: NOVARTIS: Inhibition Frequency Index (IFI) - the number of HTS assays where a compound showed > 50% inhibition/induction, expressed as a percentage of the number of assays in which the compound was tested. The test is classed as functional.
Regarding `Nc1nonc1-n1nnc(C(=O)NN=Cc2cc(Br)cs2)c1-c1ccccc1`, the IFI stood at 0%.
In the case of `CCCC(C(=O)NC(C)(C)C)N1C(=O)c2cc(NC(C)=O)ccc2NC(=O)[C@@H]1c1ccccc1` (stereo not given in full) it was 1.28%; in that of `CC(=O)N(Cc1ccc2c(c1)OCO2)C1CC(=O)N(c2ccccc2)C1=O` (stereo not given), 0%; in that of `COc1cccc(NCC(O)Cn2c3ccc(Cl)cc3c3cc(Cl)ccc32)c1` (stereo not given), 0.676%.
The figure for `CC1(C)CC(NC(=O)C(=O)NC2CC(C)(C)N(O)C(C)(C)C2)CC(C)(C)N1O` is 0%; for `COc1cc(CNCCCN(C)C)ccc1OCc1ccc(F)cc1Cl` it is 7.14%.
Molecule `CCCCNc1c2c(c(C#N)c3nc4ccccc4n13)CCC2` returned an IFI of 3.12%.
The figure for `COc1cc(C(=O)/C=C/Nc2ccc(N(C)C)cc2)cc(OC)c1OC` is 7.69%; for `CCOc1nc2c(c(=O)n(C)c(=O)n2C)n1Cc1cccc(Br)c1` it is 4.54%; for `CN(C)C(=O)NCCCCNc1ccnc2cc(Cl)ccc12` it is 0.917%.
In the case of `CC1CCCCN1CCCNc1ncc(C(=O)NCCc2ccccc2)c(NCC2CCCO2)n1` (stereo not given) it was 3.81%; in that of `CCOC(=O)c1ccc(-n2c(C)cc(/C=C3\SC(=Nc4ccc(Cl)cc4)NC3=O)c2C)cc1`, 1.18%; in that of `O=C(NCc1cccs1)c1ccc(OC2CCN(CC3CCCCC3)CC2)c(Cl)c1`, 4.17%.
In the case of `O=C(COC(=O)c1ccc2c(c1)C(=O)N(c1ccc3ccccc3c1)C2=O)c1ccc(Br)cc1`, the IFI is 0%.
In turn, `COc1cc2/c(=N/c3ccc(Br)cc3F)nc[nH]c2cc1OCC1CCN(C)CC1` yielded an IFI of 6.82%.
In turn, `CC(=O)NC(c1ccc(N(C)C)cc1)c1cc(Cl)c2cccnc2c1O` (stereo not given) had an IFI of 0%.
Take `N#CC1=C(N)Oc2c3c(c4ccccc4c2C1c1ccc(F)cc1)C(c1ccc(F)cc1)C(C#N)=C(N)O3` (stereo not given): the IFI is 6.78%.
The figure for `COc1ccc(C2NCCc3c2[nH]c2ccccc32)cc1CSc1nc2ccccc2[nH]1` (stereo not given) is 2.22%; for `COc1ccc(C(=O)N2C(C(=O)NCCC(C)C)CSC2c2ccc(C(C)(C)C)cc2)cc1` (stereo not given) it is 2.17%; for `O=C(CCCCCN1C(=O)c2cccc3cccc(c23)C1=O)NO` it is 19.4%.
In the case of `CC1=C(C(=O)OC(C)C)C(c2ccc([N+](=O)[O-])cc2)C2=C(CC(c3ccc(Cl)cc3)CC2=O)N1` (stereo not given) it was 2.35%; in that of `CCOC(=O)C1=C(C)NC2=C(C(=O)C(C(=O)OCC)C(c3cccc(OC)c3)C2)C1c1ccc(Br)cc1` (stereo not given), 2.33%.
As to `Cc1cc(N2CCCC2)nc2ccc(NC(=S)NCCN3CCc4ccccc4C3)cc12`, the IFI worked out at 5.88%.
The figure for `c1ccc(CC[n+]2cc(-c3ccccc3)n3c2CCC3)cc1` is 2.44%; for `Cc1nc(N2CCCCC2)c2c(C)c(C(=O)N3CCN(c4cccc(Cl)c4)CC3)sc2n1` it is 0%.
In the case of `COc1ccc(Nc2nc(-c3cc4cc(OC)ccc4oc3=O)cs2)c(OC)c1` it was 0%.
In turn, `O=C1CC(c2ccccc2)Oc2ccc(F)cc21` (stereo not given) showed an IFI of 2.27%.
Molecule `O=C(C1CCC(Cn2c(=S)[nH]c3ccccc3c2=O)CC1)N1CC=C(c2ccccc2)CC1` (stereo not given) returned an IFI of 0%.
As to `CC(=O)Nc1c(NCc2ccccc2)c2ccccc2sc1=O`, the IFI was found to be 2.17%.
On to `CCN(CC)C(=O)c1ccc2c(=O)n(Cc3cccc(Br)c3)c(=S)[nH]c2c1`, for which the IFI is 0%.
The figure for `CN(CCCNc1ccnc2cc(Cl)ccc12)C(=O)c1ccc(C(C)(C)C)cc1` is 7.48%.
In the case of `CCCCN1C=CC=C/C1=C\c1sc2ccccc2[n+]1CC` it was 18.2%; in that of `CC(=O)Oc1ccccc1-c1nc2cc(C)ccn2c1NC(C)(C)CC(C)(C)C`, 4.67%; in that of `CCCNC(=O)CSc1nc(C)c(Cc2ccccc2)c(=O)n1C`, 0.926%.
In the case of `CCOC(=O)c1c(NC(=O)CSc2nnc(CNC(=O)c3cccs3)n2-c2ccccc2OC)sc2c1CCC2` it was 2.41%.
As for `COc1cc(C=NNC(=O)c2ccco2)ccc1OCc1ccc([N+](=O)[O-])cc1`, the IFI is 0%.
In the case of `CC[n+]1c(C=C2Sc3ccccc3N2CCO)sc2ccccc21` it was 4.69%; in that of `COc1ccccc1NC1=CC(=NS(=O)(=O)c2ccccc2)c2ccccc2C1=O`, 21.4%; in that of `COC(=O)C1=CN(Cc2ccc(OC)cc2)C=C(C(=O)OC)C1c1cccs1`, 2.5%.
For the molecule `c1ccc(-c2nc(-c3ccc4cccnc4c3)n(-n3c(-c4ccc5cccnc5c4)nc(-c4ccccc4)c3-c3ccccc3)c2-c2ccccc2)cc1`, the IFI was 0%.
In the case of `O=C(Nc1ccc(C23CC4CC(CC(c5ccccc5)(C4)C2)C3)cc1)c1cccs1` it was 0%; in that of `CCN(CC)CCCC(C)NCc1ccc(OC)c(OCc2ccccc2)c1` (stereo not given), 7.14%.
The molecule `COc1ccc(-c2ccc(C=NNC(=O)CNC(=O)c3ccc4c(c3)OCO4)o2)cc1Cl` displayed an IFI of 0%.
The figure for `CCCCCCc1ccc(C(=O)Oc2ccccc2-c2nc3cc(C)ccn3c2NC(C)(C)CC(C)(C)C)cc1` is 2.1%; for `CSCCC(C(=O)NCC(=O)O)N1C(=O)c2cc(NC(C)=O)ccc2NC(=O)[C@@H]1c1ccccc1` (stereo not given in full) it is 1.22%.
In the case of `Cc1ccn2c(NC(C)(C)CC(C)(C)C)c(-c3ccccc3OC(=O)C3CCCC3)nc2c1` it was 3.74%.
The molecule `O=c1c2c3c(sc2ncn1CC1CCCCC1)CC(NCc1cccnc1)CC3` (stereo not given) gave an IFI of 1.71%.
Molecule `CC(C)(C)c1nn(-c2ccc(Cl)cc2)c2[nH]c(=O)c(CNCc3ccc(Cl)cc3)cc12` showed an IFI of 5.56%.
`COc1ccc(-c2nc(-c3ccc4c(c3)-c3cc(-c5[nH]c(-c6ccc(OC)cc6)nc5-c5ccccc5)ccc3C4=O)c(-c3ccccc3)[nH]2)cc1`: the IFI is 1.54%.
Consider `CC(C)(C)c1ccc(/C=C/C(=O)NCc2ccco2)cc1`, for which the IFI was determined as 0%.
The figure for `Cc1ccc(NC(=O)c2sc3nc4c(c(-c5cccs5)c3c2N)CCCCC4)cc1` is 2.41%; for `O=C1c2ccccc2-c2nc3c(Cl)cc(C(F)(F)F)cc3nc21` it is 6.36%; for `CCN1C(=Cc2ccc3ccccc3[n+]2CC)C=Cc2sc3ccccc3c21` it is 31.4%.
The figure for `CCOC(=O)NN=C1c2ccccc2-c2nc3nonc3nc21` is 15.4%.
The molecule `NC(=O)c1ccc2[nH]c3c(c2c1)CCCC3` yielded an IFI of 0%.
In the case of `Cc1ccc(NC(=O)C2C3C=CC4(O3)C2C(=O)N(Cc2cccnc2)C4C(=O)NC2CCCCC2)cc1` (stereo not given) it was 0%; in that of `CCCOC(=O)C1=C(C)NC2=C(C(=O)CC(c3ccc(OC)cc3)C2)C1c1cccc(F)c1` (stereo not given), 2.35%.
In turn, `CC(Sc1nnc2c3ccccc3n(Cc3ccccc3)c2n1)C(=O)N1CCN(C(=O)C(c2ccccc2)c2ccccc2)C(C)C1` (stereo not given) had an IFI of 1.89%.
`COc1ccc(OC)c(C2CC(=O)C3=C(C2)NC(=O)CC3c2ccc([N+](=O)[O-])cc2)c1` (stereo not given): the IFI was found to be 0%.
`CC[n+]1c(SC)ccc2cc(OC)ccc21` displayed an IFI of 7.94%.
In the case of `O=C(C1CC1)N1CCc2cc(Br)cc(S(=O)(=O)N3CCCCC3)c21` it was 0%; in that of `O=C(CCl)Nc1ccc(S(=O)(=O)OCC(F)(F)C(F)F)cc1`, 7.69%; in that of `CCOc1cc(C2CC(=O)NC3=C2C(=O)CC(c2ccc(OC)cc2)C3)cc(Cl)c1O` (stereo not given), 0%.
In the case of `COC(=O)c1ccc(C2C3=C(CC(c4ccc(OC)cc4)CC3=O)Nc3ccccc3N2C(=O)c2ccccc2)cc1` (stereo not given) it was 3.66%; in that of `Cc1nc(C(C)N(C)Cc2c(C(=O)N3CCCCCCC3)nc3sccn23)c(C)s1` (stereo not given), 0%.
`COc1cc(Nc2cncc(-c3ccc(C(N)=O)cc3)n2)cc(OC)c1OC` showed an IFI of 0%.
The molecule `Oc1ccc(-c2ccnc3cc(Cl)ccc23)cc1CNCCN1CCOCC1` showed an IFI of 1.72%.
The figure for `COc1cc(/C=C(\C#N)c2nc3ccccc3[nH]2)ccc1OCc1ccccc1F` is 4.76%.
The figure for `Cc1nc2ccccc2n1S(C)(=O)=O` is 1.82%; for `CCOC(=O)C1=C(C)N/C(=C/c2cc(C)n(-c3ccccc3C(F)(F)F)c2C)C1=O` it is 0%.
The molecule `CC1(C)C(=O)C2(CCCCC2)C(=O)OC1/C=C/c1ccccc1` (stereo not given) registered an IFI of 1.49%.
The figure for `CCCOC(=O)C1=C(C)NC2=C(C(=O)CC(c3ccc(OC)c(OC)c3)C2)C1c1cccc(Br)c1` (stereo not given) is 8.86%; for `CCCCN1C(=O)NC(c2ccc(NC(=O)c3cccs3)cc2)C(C(=O)OC(C)C)=C1C` (stereo not given) it is 6.41%; for `O=S(=O)(Nc1cc(Sc2nc[nH]n2)c(O)c2ccccc12)c1ccc(F)cc1` it is 23.1%.
The figure for `Cc1nc(-c2nc3c(s2)CN(C(=O)CCc2cccnc2)CC3)cs1` is 4.17%; for `COc1ccc(NC(=O)c2cc3cc(C4(O)CCN(Cc5cc6ccccc6[nH]5)CC4)ccc3o2)cc1` it is 8.47%; for `CNC1=C(N(Cc2ccc(Cl)c(Cl)c2)C(C)=O)C(=O)c2ccccc2C1=O` it is 14.3%.
In turn, `O=C(CN1CCN(S(=O)(=O)c2cccc([N+](=O)[O-])c2)CC1)Nc1ccc(OCc2ccccc2)cc1` yielded an IFI of 0%.
In the case of `COCCN(C(C)C(=O)NC(CN1CCCC1)c1ccccc1)S(=O)(=O)c1c(C)noc1C` (stereo not given) it was 0.98%; in that of `COc1ccc(C(=O)Oc2ccccc2-c2nc3ccccn3c2NC(C)(C)CC(C)(C)C)cc1`, 2.86%; in that of `Cc1cc(C)c(CSc2ncnc3[nH]cnc23)c(C)c1`, 1.56%.
The figure for `COc1ccc(C2CC(=O)C3=C(C2)NC(C)=C(C(=O)OC2CCCC2)C3c2ccc([N+](=O)[O-])cc2)cc1OC` (stereo not given) is 3.53%; for `CCOc1cc(S(=O)(=O)N2CCCC3(CCCCC3)C2)c(OCC)cc1-n1cnnn1` it is 4.1%.
In the case of `Cc1cc(Nc2ccc(Cl)c(C)c2)n2nc(C)nc2n1` it was 0%; in that of `CN1CCC(CCNCc2ccc(OCC(O)CN(C)Cc3ccccc3)cc2)CC1` (stereo not given), 7.69%; in that of `CCOC(=O)c1oc2cc(O)c(CC)cc2c(=O)c1-c1ccc2c(c1)OCO2`, 3.61%.
Turning to `COC(=O)c1sc2nc(CN(C)Cc3nccs3)ccc2c1NC(=O)c1ccc(C)s1`, the IFI came to 1.71%.
Consider `COc1ccc(/C=C2\SC(=O)NC2=Nc2ccccc2)c(OC)c1`, for which the IFI was 0%.
The figure for `Cc1cc(-c2ccc(O)c(CN3CCCCC3CO)c2)c2ccccc2n1` (stereo not given) is 0.848%; for `Brc1ccc2ncnc(NCC3CCCO3)c2c1` (stereo not given) it is 2.63%; for `CC(=O)N(C1=C(N(C)C)C(=O)c2ccccc2C1=O)c1ccc(Cl)c(Cl)c1` it is 7.69%.
In the case of `Cc1ccc(-c2nn(-c3ccccc3)c3[nH]c(=O)c(CNCc4ccccc4)cc23)cc1` it was 5.41%; in that of `CC(C)CNC(=O)c1cnc(NCCCN)nc1NC1CCCC1`, 1.91%.
`CCC(CO)NCC(O)Cn1c2ccc(Cl)cc2c2cc(Cl)ccc21` (stereo not given) came in with an IFI of 6.45%.
In the case of `CCOC(=O)C1=NNC2C(=O)N(c3cccc(C)c3C)C(=O)C12` (stereo not given) it was 0%.
